Assay results: the supplement of paper PMC8728848
Some of the results follow.

How the values were obtained:
Experiment in all cases: glycan array binding signal (z-score within array); higher = stronger binding
Conditions in all cases: glycan notation: IUPAC condensed, linker removed
[1] = target: Fuc(a1-2)Gal(b1-4)[Fuc(a1-3)]GlcNAc(b1-2)[Fuc(a1-2)Gal(b1-4)[Fuc(a1-3)]GlcNAc(b1-4)]Man(a1-3)[Fuc(a1-2)Gal(b1-4)[Fuc(a1-3)]GlcNAc(b1-2)Man(a1-6)]Man(b1-4)GlcNAc(b1-4)GlcNAc
Summary of the method: (§1)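 Arrays were curated from the Consortium for Functional Glycomics database, 3228 in total, and kept only where the protein sequence was available. Binding is expressed as a within-array Z-score. This score was averaged across arrays of the same protein sequence at different concentrations or buffers and across linkers, and negative values can be read as non-binding.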

[2] = target: Fuc(a1-2)Gal(b1-4)[Fuc(a1-3)]GlcNAc(b1-3)Gal(b1-4)[Fuc(a1-3)]GlcNAc
Summary of the method: as §1

[3] = target: Fuc(a1-2)Gal(b1-4)[Fuc(a1-3)]GlcNAc(b1-3)Gal(b1-4)[Fuc(a1-3)]GlcNAc(b1-3)Gal(b1-4)[Fuc(a1-3)]GlcNAc
Summary of the method: as §1

[4] = target: Fuc(a1-2)Gal(b1-4)[Fuc(a1-3)]GlcNAc(b1-3)GalNAc
Summary of the method: as §1

Fuc(a1-2)Gal6S(b1-4)Glc = target: Fuc(a1-2)Gal6S(b1-4)Glc
Summary of the method: as §1

[5] = target: Fuc(a1-2)Gal6S(b1-4)Glc6S
Summary of the method: as §1

[6] = target: Fuc(a1-2)Gal6S(b1-4)GlcNAc
Summary of the method: as §1

Fuc(a1-2)[Gal(a1-3)]Gal = target: Fuc(a1-2)[Gal(a1-3)]Gal
Summary of the method: as §1

[7] = target: Fuc(a1-2)[Gal(a1-3)]Gal(b1-3)GlcNAc
Summary of the method: as §1

[8] = target: Fuc(a1-2)[Gal(a1-3)]Gal(b1-3)GlcNAc(b1-2)Man(a1-3)[Fuc(a1-2)[Gal(a1-3)]Gal(b1-3)GlcNAc(b1-2)Man(a1-6)]Man(b1-4)GlcNAc(b1-4)GlcNAc
Summary of the method: as §1

[9] = target: Fuc(a1-2)[Gal(a1-3)]Gal(b1-3)GlcNAc(b1-3)GalNAc
Summary of the method: as §1

[10] = target: Fuc(a1-2)[Gal(a1-3)]Gal(b1-4)Glc
Summary of the method: as §1

[11] = target: Fuc(a1-2)[Gal(a1-3)]Gal(b1-4)GlcNAc
Summary of the method: as §1

[12] = target: Fuc(a1-2)[Gal(a1-3)]Gal(b1-4)GlcNAc(b1-2)Man(a1-3)[Fuc(a1-2)[Gal(a1-3)]Gal(b1-4)GlcNAc(b1-2)Man(a1-6)]Man(b1-4)GlcNAc(b1-4)GlcNAc
Summary of the method: as §1

[13] = target: Fuc(a1-2)[Gal(a1-3)]Gal(b1-4)GlcNAc(b1-2)Man(a1-3)[Fuc(a1-2)[Gal(a1-3)]Gal(b1-4)GlcNAc(b1-2)Man(a1-6)]Man(b1-4)GlcNAc(b1-4)[Fuc(a1-6)]GlcNAc
Summary of the method: as §1

[14] = target: Fuc(a1-2)[Gal(a1-3)]Gal(b1-4)GlcNAc(b1-3)GalNAc
Summary of the method: as §1

[15] = target: Fuc(a1-2)[Gal(a1-3)]Gal(b1-4)[Fuc(a1-3)]Glc
Summary of the method: as §1

[16] = target: Fuc(a1-2)[Gal(a1-3)]Gal(b1-4)[Fuc(a1-3)]GlcNAc
Summary of the method: as §1

[17] = target: Fuc(a1-2)[Gal(a1-3)]Gal(b1-4)[Fuc(a1-3)]GlcNAc(b1-3)GalNAc
Summary of the method: as §1

[18] = target: Fuc(a1-2)[Gal(a1-4)]Gal(b1-4)GlcNAc
Summary of the method: as §1

[19] = target: Fuc(a1-2)[GalNAc(a1-3)]Gal
Summary of the method: as §1

[20] = target: Fuc(a1-2)[GalNAc(a1-3)]Gal(b1-3)GalNAc(a1-3)[Fuc(a1-2)]Gal(b1-4)GlcNAc
Summary of the method: as §1

[21] = target: Fuc(a1-2)[GalNAc(a1-3)]Gal(b1-3)GlcNAc
Summary of the method: as §1

[22] = target: Fuc(a1-2)[GalNAc(a1-3)]Gal(b1-3)GlcNAc(b1-2)Man(a1-3)[Fuc(a1-2)[GalNAc(a1-3)]Gal(b1-3)GlcNAc(b1-2)Man(a1-6)]Man(b1-4)GlcNAc(b1-4)GlcNAc
Summary of the method: as §1

[23] = target: Fuc(a1-2)[GalNAc(a1-3)]Gal(b1-3)GlcNAc(b1-3)GalNAc
Summary of the method: as §1

[24] = target: Fuc(a1-2)[GalNAc(a1-3)]Gal(b1-4)Glc
Summary of the method: as §1

[25] = target: Fuc(a1-2)[GalNAc(a1-3)]Gal(b1-4)GlcNAc
Summary of the method: as §1

[26] = target: Fuc(a1-2)[GalNAc(a1-3)]Gal(b1-4)GlcNAc(b1-2)Man(a1-3)[Fuc(a1-2)[GalNAc(a1-3)]Gal(b1-4)GlcNAc(b1-2)Man(a1-6)]Man(b1-4)GlcNAc(b1-4)GlcNAc
Summary of the method: as §1

[27] = target: Fuc(a1-2)[GalNAc(a1-3)]Gal(b1-4)GlcNAc(b1-3)Gal(b1-4)GlcNAc
Summary of the method: as §1

[28] = target: Fuc(a1-2)[GalNAc(a1-3)]Gal(b1-4)GlcNAc(b1-3)Gal(b1-4)GlcNAc(b1-3)Gal(b1-4)GlcNAc
Summary of the method: as §1

B1: CwpV (Clostridium difficile), B6EFG6 (protein)
chain: MKIPKKIAAMLTVTMIAGSSTAGIASAQTVATNLTGQERYETAVKISQDGWKNADEVVIVNDSSIADALSATPFAKAKNAPILLTSKDKLNDKTKAEIQRLKAKKVYLIGGTSVLSTNIEKEIKDLKISFERISGAERYQTSLELAKKLDAISDVKKIAVVNGEKGLADAVSVGAPAAQNNMPVILADSKNGTAVADKFIKDAGITQSYVVGGESSISEAVKNKLPNSTRLGGTDRNDTNAKVIKEFYKKTDLKNAYVTKDGMNKQDQLIDALAVGVLGAKNQSPVVLVGKNLSASQKSLVNSKSFDKITKVGGNGNETAFNEMKSLQEVKTVEAKTISELKSAIDKATANDVINFKPTSEVKEAFTIQTDKAVTVNLNGTYTKTVTINMPNGDVNNYAKVDDVVIDDVKDGTFVNYGKITNLKVNDKNGAKIENNSKGEIGSLTVASGASQVKVTNGGKITTVTNNSKGTTIDNKGTISSVKGDNSPTISGNSPSSNSSGGSSSSGGSSGGSSGGSSSSKVGQIKFSATDKQIKMASGDKTVDPSDNTYILKLTNGTVKDGDVKANVKVAGLPSGLDYTAVGNRSANTITITVSGTTSQSIQNDLNNVSVLVKAGAVSGTGATDSIANTTFEIKKYVAAPAVGQLTFDATDKQIKMASGDKTVDPSDDTYVLTLTKGTAKDGDIKANVEVTGLPSGLDYTAEGDSSANTITIPVSGTASPAVQTDLDNVSVLVKAGAVSETTATDSAANATFEVKKYVAPAVGQLTFDATDKQIKMASGDKTVDPSDDTYVLTLTKGTAKDGDIKANVEVTGLPSGLDYTAEGDSSANTITITVSGTASQAVQTDLDNVSVLVKAGAVSETTATDSAANATFEVKKYVAPAIGQLTFDATDKQIKMASGDKTVDPSDDTYVLTLTKGTAKDGDIKANVEVTGLPSGLDYTAEGDSSANTITITVSGTASQAVQTDLDNVSVLVKAGAVSETTATDSAANATFEVKKHASDPISTIGKISSGLSSLFNILK
[1]
  glycan array binding signal (z-score): 0.255
[2]
  glycan array binding signal (z-score): -0.02
[3]
  glycan array binding signal (z-score): -0.232
[4]
  glycan array binding signal (z-score): 0.596
Fuc(a1-2)Gal6S(b1-4)Glc
  glycan array binding signal (z-score): -0.055
[5]
  glycan array binding signal (z-score): -0.073
[6]
  glycan array binding signal (z-score): -0.297
Fuc(a1-2)[Gal(a1-3)]Gal
  glycan array binding signal (z-score): -0.323
[7]
  glycan array binding signal (z-score): -0.335
[8]
  glycan array binding signal (z-score): -0.145
[9]
  glycan array binding signal (z-score): -0.264
[10]
  glycan array binding signal (z-score): -0.278
[11]
  glycan array binding signal (z-score): -0.267
[12]
  glycan array binding signal (z-score): -0.147
[13]
  glycan array binding signal (z-score): 0.139
[14]
  glycan array binding signal (z-score): -0.279
[15]
  glycan array binding signal (z-score): -0.334
[16]
  glycan array binding signal (z-score): -0.324
[17]
  glycan array binding signal (z-score): 0.41
[18]
  glycan array binding signal (z-score): 1.1
[19]
  glycan array binding signal (z-score): -0.307
[20]
  glycan array binding signal (z-score): -0.257
[21]
  glycan array binding signal (z-score): -0.304
[22]
  glycan array binding signal (z-score): -0.269
[23]
  glycan array binding signal (z-score): 0.024
[24]
  glycan array binding signal (z-score): -0.325
[25]
  glycan array binding signal (z-score): -0.318
[26]
  glycan array binding signal (z-score): -0.032
[27]
  glycan array binding signal (z-score): 0.349
[28]
  glycan array binding signal (z-score): -0.092
